Laboratory results: the supplement of paper PMC12355420
Counter-ions that a name gives are not always drawn. This is one part of the list. Rule as the data show it: active = 0.5 or less and inactive = the rest. Most values come without repeats; read them as rough.

Tests used:
Conditions in all cases: 50 µM; 24 h
[1] = test system: HeLa VPS33A reporter cells; test: relative cell viability (CellMask signal) vs DMSO (fraction of DMSO); higher = less cytotoxic;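 also: primary screen of an FDA-approved drug library in HeLa reporter cells in 96-well format, CellMask signal normalized to DMSO-treated wells set as 1, under 0.5 deemed highly cytotoxic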
[2] = test system: HeLa VPS33A R498W KI + HA-SDC1-FLAG; test: relative GAG core protein HA-SDC1 amount per cell number vs DMSO (fraction of DMSO); higher = more SDC1 (GAG core protein);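 also: HA-SDC1 level read out by In-Cell Western staining with an anti-HA antibody against the N-terminal tag, screening FDA-approved library drugs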
[3] = test system: HeLa VPS33A KO + NLuc-VPS33A R498W; test: relative mutant VPS33A R498W amount (NanoLuc luminescence) vs DMSO (fraction of DMSO); HeLa model of a glycosaminoglycan (GAG) storage disease; KI is knock-in and KO knock-out; SDC1 is syndecan 1; higher = higher mutant VPS33A level;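 also: screen of an FDA-approved drug library, NanoLuc luminescence read after lysing the treated cells, taken as a measure of mutant VPS33A protein stability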

Compound | relative cell viability [1] | relative GAG core protein HA-SDC1 amount per cell number [2] | relative mutant VPS33A R498W amount [3]
N[C@@H](C(=O)N[C@@H]1C(=O)N2C(C(=O)O)=C(Cl)CS[C@H]12)c1ccccc1 [Cefaclor] | 0.878 | inactive: 1.81 | 1.22
O=C(O)[C@H]1OC(O)[C@H](O)[C@@H](O)[C@@H]1O (mixture of isomers) [glucuronate] | 1.06 | inactive: 0.845 | 1.21
Cc1cc(C(C)(C)C)c(O)c(C(C)(C)C)c1 | 1.07 | inactive: 0.756 | 0.829
C[C@]12C=CC(=O)N[C@@H]1CC[C@@H]1[C@@H]2CC[C@]2(C)[C@@H](C(=O)Nc3cc(C(F)(F)F)ccc3C(F)(F)F)CC[C@@H]12 [Dutasteride] | 0.973 | inactive: 1.41 | 1.65
CO[C@@H]1[C@@H](OC(N)=O)[C@@H](O)[C@H](Oc2ccc3c(O)c(NC(=O)c4ccc(O)c(CC=C(C)C)c4)c(=O)oc3c2C)OC1(C)C [Novobiocin Sodium] | 0.94 | inactive: 0.847 | 0.751
CS(=O)(=O)CCNCc1ccc(-c2ccc3ncnc(Nc4ccc(OCc5cccc(F)c5)c(Cl)c4)c3c2)o1 [Lapatinib] | 1.23 | inactive: 1.06 | 0.545
Nc1c2c(nc3ccccc13)CCCC2 [Tacrine hydrochloride] | 1.01 | active: 0.48 | 1.21
CN1CC(=O)N2[C@H](c3ccc4c(c3)OCO4)c3[nH]c4ccccc4c3C[C@@H]2C1=O [Tadalafil] | 1.16 | inactive: 1.18 | 1.13
CCCNS(=O)(=O)Nc1ncnc(OCCOc2ncc(Br)cn2)c1-c1ccc(Br)cc1 [Macitentan] | 1.1 | inactive: 1.04 | 0.839
CCCCN1CCCC[C@H]1C(=O)Nc1c(C)cccc1C [Levobupivacaine HCl] | 0.956 | inactive: 0.96 | 1.01
NC(N)=O | 1.01 | inactive: 0.854 | 1.27
N[C@@H](CC(=O)N1CCn2c(nnc2C(F)(F)F)C1)Cc1cc(F)c(F)cc1F [Sitagliptin] | 1.04 | inactive: 0.809 | 1.17
COc1c(C)c2c(c(O)c1C/C=C(\C)CCC(=O)O)C(=O)OC2 [Mycophenolic acid] | 0.986 | inactive: 0.97 | 2.09
Cc1ccnc2c1NC(=O)c1cccnc1N2C1CC1 [Nevirapine] | 1.01 | inactive: 1.05 | 0.895
Cn1c(=O)cc(N2CCC[C@@H](N)C2)n(Cc2cc(F)ccc2C#N)c1=O [Trelagliptin] | 1.21 | inactive: 1.09 | 1.33
O=C1NC(=O)C(c2ccccc2)(c2ccccc2)N1 [Phenytoin] | 1.01 | inactive: 0.928 | 1.54
COc1ccc(/C=C/C(=O)Nc2ccccc2C(=O)O)cc1OC [Tranilast] | 1.1 | inactive: 1.14 | 1.14
CC[C@H](C)C(=O)O[C@H]1CCC=C2C=C[C@H](C)[C@H](CC[C@@H]3C[C@@H](O)CC(=O)O3)[C@H]21 [Mevastatin] | 0.962 | inactive: 0.623 | 2.09
Cc1cn([C@@H]2C[C@@H](O)[C@H](CO)O2)c(=O)[nH]c1=O [Telbivudine] | 1.08 | inactive: 0.881 | 0.966
COc1cnc(NS(=O)(=O)c2ccc(N)cc2)nc1 [Sulfameter] | 1.14 | inactive: 0.734 | 0.93
CCOC(=O)CCC(=O)O[C@H]1[C@H](O[C@@H]2[C@@H](C)[C@H](O[C@H]3C[C@@](C)(OC)[C@@H](O)[C@H](C)O3)[C@@H](C)C(=O)O[C@H](CC)[C@@](C)(O)[C@H](O)[C@@H](C)C(=O)[C@H](C)C[C@@]2(C)O)O[C@H](C)C[C@@H]1N(C)C [Erythromycin Ethylsuccinate] | 1.04 | inactive: 0.72 | 1.13
COc1ccccc1OCC(O)CO (stereo not given) [Guaifensin] | 1.08 | inactive: 1.27 | 1.01
O=c1ccc2cc(O)c(O)cc2o1 [6,7-Dihydroxycoumarin] | 1.02 | inactive: 0.981 | 1.22
N=C(N)NC(=O)c1nc(Cl)c(N)nc1N [Amiloride HCl dihydrate] | 1.1 | inactive: 0.81 | 1.32
O=C(O)c1cc(O)c2c(c1)[C@H]([C@H]1c3cc(C(=O)O)cc(O)c3C(=O)c3c(O[C@@H]4O[C@H](CO)[C@@H](O)[C@H](O)[C@H]4O)cccc31)c1cccc(O[C@@H]3O[C@H](CO)[C@@H](O)[C@H](O)[C@H]3O)c1C2=O [Sennoside A] | 0.939 | inactive: 1.01 | 0.712
